PubChem BioAssay AID1345083 (National Center for Advancing Translational Sciences (NCATS), 2018)
Several values for one entry are separate records, joined by “and”; a condition that tells them apart may be missing. Equal values may be shown once. Out of some 94,000 compounds screened, about 6,200 (6.6%) were called active. Inconclusive means that the source gave no clear call. Such entries were picked first, then a sample of the others. The call rests on the fitted dose curve; in most records, active means well fitted inhibition curve with a large enough effect; inconclusive means small, poorly fitted or top-dose-only effect; inactive means flat fitted curve, though single readings scatter. Potencies of inconclusive entries are doubtful fits and often do not repeat.

Assay: Cytotoxic Profiling in HEK 293 Cell Line of Diverse Libraries Using Quantitative High-Throughput Screening; further: nearly all actives have a fitted effect of over 60% in size
Conditions: HEK 293 viability, ATP luminescence (CellTiter-Glo), 48-72 h; series mostly up to 115 µM
In short: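 HEK 293 cells at 250 cells/well were exposed to compounds by pintool transfer for 48 or 72 hr at 37 degree Celsius, 5% CO2. Viability was read as ATP-coupled luminescence with CellTiter-Glo after 10 min at room temperature.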
Potency means the concentration at half of the fitted maximal effect; tags describe the fitted curve by direction and shape.

| SMILES | Potency |
| --- | --- |
| C=CCN(C)C(=O)[C@@H]1Cc2cn(Cc3cc(C)on3)c3cccc(c23)[C@H](CC(C)C)N1 | active: 70.8 µM |
| Cc1ccc2c(C(=O)NCc3ccc(F)cc3Cl)cc(NC(=O)C(C)C)cc2n1 | inconclusive: 50.1 µM [inhibitor, partial curve, poor fit] |
| O=C(NCCN[S+](=O)([O-])c1cccs1)c1ccc(-c2cccc(C(F)(F)F)c2)cc1 | active: 44.7 µM |
| CCOC(=O)[C@@H]1[C@@H](O)C(=O)N(Cc2ccccc2)C12CCN(C(=O)N(C)C)CC2 | inactive |
| O=C(c1ccc2cc[nH]c2c1)N1CCCC(Cc2noc(-c3ccccc3)n2)C1 (stereo not drawn) | inconclusive: 31.6 µM [inhibitor, full curve, poor fit] |
| Cc1cc(S(=O)(=O)N2CCC3(CCC(=O)N(CC4CC4)CC3)CC2)ccc1F | inconclusive: 56.2 µM [inhibitor, partial curve, poor fit] |
| CCOc1cc2c(cn1)NCCN(Cc1ccc3[nH]ccc3c1)C2 | inconclusive: 100 µM [inhibitor, partial curve, poor fit] |
| c1ccc(C2(c3ccccc3)CCCN(Cc3ncccn3)C2)cc1 | inconclusive: 39.8 µM [inhibitor, partial curve, poor fit] |
| O=C(CN1C(=O)C(c2ccccc2)=NC12CCCC2)NC1CCCCC1 | inconclusive: 35.5 µM [inhibitor, partial curve, poor fit] |
| CC[C@H]1CN(S(=O)(=O)c2c(C)noc2C)CC[C@H]1CC(=O)N(C)CC#N | inconclusive: 126 µM [inhibitor, single point] |
| CCCn1cc(C2CCN(S(=O)(=O)c3c(C)cc(C)cc3C)CC2)c2ccccc21 | inconclusive: 39.8 µM [inhibitor, full curve, poor fit] |
| O=C(Cn1c(=O)oc2ccccc21)NCC1Cn2cccc2CN1Cc1ccccc1 (stereo not drawn) | inconclusive: 56.2 µM [inhibitor, partial curve, poor fit] |
| C[S+](=O)([O-])N1CC2(CCCCN2Cc2ccccn2)Cc2ccccc21 (stereo not drawn) | inactive |
| O=C(NCC1CCCCCC1)C1CCCN(Cc2cccc(-c3ccc(F)cc3F)c2)C1 (stereo not drawn) | inconclusive: 39.8 µM [inhibitor, partial curve, poor fit] |
| Fc1ccc(CN2CCC3(CC2)CC(c2cccnc2)=NO3)cc1 | inconclusive: 89.1 µM [inhibitor, partial curve] and inconclusive: 50.1 µM [inhibitor, partial curve, poor fit] |
| CN(C)Cc1cc(C[C@@H]2C[C@H](NC(=O)C3CCCC3)C2(C)C)no1 | inconclusive: 35.5 µM [inhibitor, full curve] |
| CN1c2cc(C(=O)NCc3ccc(F)cc3F)ccc2C(=O)N2CCCC21 (stereo not drawn) | inconclusive: 56.2 µM [inhibitor, partial curve, poor fit] |
| CCC(=O)N(C1CCOCC1)C1CCN(S(=O)(=O)c2ccc(CC)cc2)CC1 | inconclusive: 89.1 µM [inhibitor, single point] |
| O=C(NCCCc1ccccc1)c1cccc2c1CCN2C(=O)C1CC1 | inconclusive: 56.2 µM [inhibitor, partial curve, poor fit] |
| COc1ccc(Cn2nc(-c3ccccc3)nc2C2CCC(=O)NC2)cc1 (stereo not drawn) | inconclusive: 50.1 µM [inhibitor, partial curve, poor fit] |
| COc1cccc(-c2cc(C3CCN(C(=O)c4ccccc4Br)CC3)[nH]n2)c1 | active: 28.2 µM |

| SMILES | Potency |
| --- | --- |
| Cc1ccc(C(=O)NC2CCN(C(=O)N3CC4CC(C3)[C@H]3CCCC(=O)N3C4)CC2)s1 (stereo partly drawn) | inactive |
| COCc1ccc(C(=O)N2CCC3(CC2)C(C(=O)O)CC(=O)N3C)o1 (stereo not drawn) | inactive |
| Cc1cn2nc(C(=O)Nc3ccc(C)c(F)c3)cc2c(N2CCSCC2)n1 | inconclusive: 35.5 µM [inhibitor, full curve, poor fit] |
| O=C(O)c1cccc(CC2CCN(C(=O)CCCN3CCCCC3=O)C2)c1 (stereo not drawn) | inconclusive: 35.5 µM [inhibitor, single point] |
| O=C(NCCCN1CCCC1=O)c1ccc(-c2ccc(N3CCSCC3)nc2)cc1 | inconclusive: 50.1 µM [inhibitor, partial curve, poor fit] |
| O=c1c2c(CO)c(-c3ccc(F)cc3)nn2ccn1CCc1ccccc1 | inconclusive: 44.7 µM [inhibitor, partial curve, poor fit] |
| Cc1ccccc1S(=O)(=O)N1CCCC(CCC(=O)Nc2ccc(F)cc2F)C1 (stereo not drawn) | inconclusive: 12.6 µM [inhibitor, full curve, poor fit] |
| CCC1=C(C(=O)OC)C(c2ccc(OC)cc2OC)N2C(CC(=O)NC3CC3)=CSC2=N1 (stereo not drawn) | inconclusive: 89.1 µM [inhibitor, single point] |
| COc1ccc(C(=O)N2CCC3(CC2)NC(=O)N(Cc2ccc(F)cc2)C3=O)c(OC)c1 | inconclusive: 44.7 µM [inhibitor, partial curve, poor fit] |
| CN(C)c1cccc(C(=O)N2CCC3(CC2)NC(=O)N(c2cccc(Cl)c2)N3)c1 | inconclusive: 25.1 µM [inhibitor, full curve] |
| O=C(NCC1CN(CC2CC2)CC12CN(c1ccccc1)C2)Nc1ccccc1 (stereo not drawn) | inconclusive: 100 µM [inhibitor, partial curve] |
| O=C(NCC(F)(F)F)C1CCCCN1Cc1ccc(-c2ccsc2)cc1 (stereo not drawn) | inconclusive: 89.1 µM [inhibitor, single point] |
| CCN1CC(CN(C)Cc2cn(-c3ccccc3C)nc2-c2ccc(OC)c(F)c2)CC1=O (stereo not drawn) | active: 22.4 µM |
| Cc1oc2c(c1C(=O)NC1CCCC1)CN(Cc1ccc(F)cc1)CC2 | inconclusive: 70.8 µM [inhibitor, partial curve, poor fit] |
| C[C@H]1[C@@H]2[C@H]3OC(=O)[C@@H](C)[C@@H]3CC[C@@]2(C)CC[C@@H]1NC(=O)c1cncnc1 | inactive |
| COc1ccc(S(=O)(=O)N2CCc3c(C(=O)NCc4ccncc4)cccc32)cc1 | active: 35.5 µM |
| Cn1cccc1C(=O)N1CCCC(c2nc(-c3ccccc3)no2)CCNC(=O)CC1 (stereo not drawn) | inconclusive: 89.1 µM [inhibitor, single point] |
| O=C(c1cc2ccccc2[nH]1)N1CCC2(CC1)CN(c1ncccn1)CC2CO (stereo not drawn) | active: 79.4 µM |
| CCCNC(=O)N1CCCCCC1CN1CCC(C)CC1 (stereo not drawn) | inactive |
| O=C1NCCCCCCN(Cc2ccncc2)[C@@H]2CN(Cc3ccncc3)CC[C@H]12 | inactive |
| CCc1ccc(CNC(=O)c2ccc3c(c2)N(CC)C2CCCCN2C3=O)cc1 (stereo not drawn) | inconclusive: 89.1 µM [inhibitor, single point] |

| SMILES | Potency |
| --- | --- |
| COc1ccc(-c2cc(C[C@H]3CNCC[C@H]3CC(=O)NCc3cccs3)no2)cc1 | active: 56.2 µM |
| CC(C)c1ccc(NC(=O)O[C@@H]2CO[C@H]3[C@@H]2OC[C@@H]3NC(=O)Nc2cccc(C#N)c2)cc1 | inconclusive: 50.1 µM [inhibitor, partial curve, poor fit] |
| CN1[C@@H](CCC(=O)N2CCN(c3ccccc3)CC2)CNC(=O)[C@@H]2[C@H]1CCN2Cc1ccccc1 | inconclusive: 50.1 µM [inhibitor, partial curve, poor fit] |
| CCc1ccc(CNC(=O)C2(c3ccc(NC(C)=O)cc3)CCC2)cc1 | inactive |
| O=C(c1ccc2c(c1)OCO2)N1CCn2c(nn(-c3cccc(Cl)c3)c2=O)C1 | inconclusive: 50.1 µM [inhibitor, partial curve, poor fit] |
| Cc1cnc(C(=O)N2CCC(N3C(=O)C4(CCCC4)C3c3ccccc3)CC2)cn1 (stereo not drawn) | inactive |
| COc1ccc(OC)c(S(=O)(=O)N2CC(c3nc(CCN(C)C(C)=O)no3)C2)c1 | inactive |
| Cc1nn(-c2ccc(F)cc2)c(Oc2cccc(F)c2)c1CCC(=O)N1CCSCC1 | active: 35.5 µM |
| CC[C@H](O)[C@@H]1N(C(=O)c2csc(-c3cccs3)n2)C2CCC1(O)CC2 | inconclusive: 89.1 µM [inhibitor, single point] |
| Cc1ccccc1CC(=O)N1CCCn2cc(-c3cccc(C#N)c3)nc21 | inconclusive: 79.4 µM [inhibitor, partial curve, poor fit] |
| Cc1cc(N2CCN(C(=O)CCCS(N)(=O)=O)CC2)cc(C)n1 | inactive |
| O=C(Cc1cccs1)N1CC(c2noc(C3CCCN3CC3CC3)n2)C1 (stereo not drawn) | inactive |
| CCOCCCNC(=O)N1CCC2(CC1)CC(N1CCOCC1)CCO2 (stereo not drawn) | inactive |
| Cc1ccc(C)c(C(=O)N2CCOC(CCCc3ccccc3)C2)c1 (stereo not drawn) | inconclusive: 44.7 µM [inhibitor, partial curve, poor fit] |
| CS(=O)(=O)c1ccc(CN2CCOC[C@H]2c2ncc(-c3cccc(Cl)c3)[nH]2)cc1 | inconclusive: 126 µM [inhibitor, single point] |
| COc1ccc(OC)c(NC(=O)CCn2ccn3nc4c(c3c2=O)CCCC4)c1 | inactive |
| CNC(=O)c1ccc2c(c1)OCCN(c1ccccc1)C2 | inconclusive: 126 µM [inhibitor, partial curve] |
| CCn1nccc1C(=O)N1c2ccccc2CC1c1nnc(C2CCOCC2)o1 (stereo not drawn) | inactive |
| Cc1ccc(CN2C[C@H]3CN(Cc4ccc(OC(F)(F)F)cc4)CCN3C2=O)cc1 | active: 70.8 µM |
| COc1ccc(OCc2nc(C3CN(C(=O)Nc4cccc(F)c4)C3)no2)cc1 | inconclusive: 79.4 µM [inhibitor, partial curve, poor fit] |
| C#CCNC(=O)c1cc(-c2cnccc2Cl)c2cccn2n1 | inconclusive: 79.4 µM [inhibitor, partial curve] |
